Results as given in PMC12136788.
The other results are listed elsewhere or left out.

T1: UNK ZnF1-3 (human, UniProt Q9C0B0 31-174)
T1 sequence: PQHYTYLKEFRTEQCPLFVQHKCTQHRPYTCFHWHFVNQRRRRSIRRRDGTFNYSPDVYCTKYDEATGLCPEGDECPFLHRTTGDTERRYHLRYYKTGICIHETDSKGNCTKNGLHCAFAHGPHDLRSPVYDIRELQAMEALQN

B1: 69235922_69236042_4149_3pUTR_ENSG00000135679_ENST00000462284|human|control|control (ssRNA)
RNA: GGGAGUUCUACAGUCCGACGAUCUCCGUAGUCCUUUUUCUUGAAUUUGUUCAUUAUAAAUAUAGCUUGGCAUUUGUUUGAUCUUUUCAACUGUCUUCACUGCAUCAGUAGUUUUAUUCCAUAGUUCUUGCAGAUAUUUGACAGCAACAGAGGAUUGAGCAUCA
B2: chr11:20585787:20585788:-_ENSMUSG00000049659_ENSMUST00000146722|mus_mus|FALSE|FALSE (ssRNA)
RNA: GGGAGUUCUACAGUCCGACGAUCUCUUUUUUUAUUUCAAAAGUUUUUAAGAAGGACACCACCAGUGUAUUUCACAAAGACAUAAAUGUAUACACCCCAGCAACACAAAAGAAUAAAUCUUCAAAAAUGUUCAUCCCCAAUUAUCAACAGAGGAUUGAGCAUCA
B3: chr2:125499325:125499326:+_ENSMUSG00000091337_ENSMUST00000164756|mus_hu|FALSE|FALSE (ssRNA)
RNA: GGGAGUUCUACAGUCCGACGAUCGAGUUCUUCGGUCAGACGAUUGACAACCAUCAGUGAAAAAAGCUCUUCGAUAAAAGCUAACUGAUCAAACGGGGUCUUCUCAUAAUGCAUCUGAAACCCGCCAUCCAGGGCUGGUUCUCUCAACAGAGGAUUGAGCAUCA
B4: chrX:71549762:71549763:+_ENSMUSG00000019087_ENSMUST00000019231|mus_mus|mus_mus_mus_hu_False|8_78 (ssRNA)
RNA: GGGAGUUCUACAGUCCGACGAUCAAACCCGUGUACUUCUUAUUGUUAGCACAACAUUCCCCCCCAACGAUAACGACAGCCAAGCAGGACAGACAGUUAAGUAGUACUUCCACACUCCCAAACUCAGAGGAACCUCAAACCUUACAACAGAGGAUUGAGCAUCA
B5: chr7:26237324:26237325:-_ENSG00000122566_ENST00000356674|hu_hu|FALSE|FALSE (ssRNA)
RNA: GGGAGUUCUACAGUCCGACGAUCUUCGUAGUAGUUCCUCAAACUUUCUUCUGUGGUUUCAAAGCUUAAGCCACCAAUAAAGAGCUUACGGAACUGUUCCUUUUCUCUCUCCAUCGCGGACUCAGUCGCUUCAGCCCGAUUUCCCAACAGAGGAUUGAGCAUCA
B6: chr8:104444897:104444898:+_ENSG00000164934_ENST00000297579|hu_hu|FALSE|FALSE (ssRNA)
RNA: GGGAGUUCUACAGUCCGACGAUCUGCUGUAAAAAUGAAAGCUUCCAUAGGGUUCCAACAGAUUGUAUUUGUUCUCAUAUCUAAGAUAACCUUUUUCAAAGGAGUAGCUUGCCUCAUAUCGUACAGUACUAUAUUCCUGUCAGACAACAGAGGAUUGAGCAUCA
B7: chr10:89574256:89574257:-_ENSG00000138138_ENST00000328142|hu_hu|FALSE|FALSE (ssRNA)
RNA: GGGAGUUCUACAGUCCGACGAUCCUGAGCUUCUACUUUUUGCUUUCUGGUUGGAUCAAUUGCAUCUACCAUCCAUUUGAUAGUAAAGUAUGUCACUGCACCAAAUAUUGUCAAACGGAAAAUUAAACCAACAACUUCAUUCCGCAACAGAGGAUUGAGCAUCA
B8: 71194378_71194498_5973_3pUTR_ENSG00000006432_ENST00000554752|human|control|control (ssRNA)
RNA: GGGAGUUCUACAGUCCGACGAUCGGGGCCCAUCAGAGACCAGGUGUGUAGGAGCUGAGAGAUGGUAACUGUUCCUUCUUCAUGGAUGCUCACAGUAGCACCUUUGGAUAGCCCUGCUUUUGCUUCUUUCAGGUACAAUUAUUUCAACAGAGGAUUGAGCAUCA
B9: chr1:60041781:60041782:+_ENSMUSG00000041040_ENSMUST00000036540|mus_hu|mus_mus_mus_hu_False|18_98 (ssRNA)
RNA: GGGAGUUCUACAGUCCGACGAUCAAGUUUACAAUAGCUCAACUUUAGCAGUAGUGGCAAAUUUUCUUUUAUUUUCCUUCACAAAAGAAAAUCUUUAUAACCCAGUCCUAGUCUUGGCAGAGAAAGCAGCUAUAAAUUCUGACUCAACAGAGGAUUGAGCAUCA
B10: chr2:216981417:216981418:+_ENSG00000079246_ENST00000392132|hu_hu|hu_hu_hu_mus_True|38_98 (ssRNA)
RNA: GGGAGUUCUACAGUCCGACGAUCCUGAUACUGGUCCCCACCAGAAAGGGCAUUAUCAGUGCCAUCUGUGCCAUAGAGGACUAACGCAAUCUCAUCUUUGUUCUCAGAAAAUACCUGUCGUUGGACAAACAUAGUCAUCACUUUCAACAGAGGAUUGAGCAUCA
B11: chr6:86325054:86325055:-_ENSG00000135316_ENST00000355238|hu_hu|FALSE|FALSE (ssRNA)
RNA: GGGAGUUCUACAGUCCGACGAUCUCCACGCCCUCGACCUCUUGUUGGAGGGGGCAUAUGAGGUGGACCAUAAUAGUAGUAAUCGUCAUACAUUUGAUUUUUUGCUGCUUGCCUCUGAGCUUUUCUUUCUUUCCUUUUCUGAUCCAACAGAGGAUUGAGCAUCA
B12: chr5:145543945:145543946:-_ENSG00000133706_ENST00000545646|hu_hu|hu_hu_hu_mus_True|18_38 (ssRNA)
RNA: GGGAGUUCUACAGUCCGACGAUCCUGAACGGCCAGUGGUGGGAAAUAAUCAAGCCAGUGCUCUGCUUCAGAAAACUUCACUAUGUCGUCAUCAGAGAGGCCAAGGGAUUUCAUAAUGCCCCACUGGUACUUAGAAGAUCCUGCCAACAGAGGAUUGAGCAUCA
B13: chr3:10015032:10015033:+_ENSMUSG00000027533_ENSMUST00000029046|mus_mus|mus_mus_mus_hu_True|1_88 (ssRNA)
RNA: GGGAGUUCUACAGUCCGACGAUCGUUUUUACCAUCACAAGUGAUGAUACAGUCUGGCUUGGCCAUUGCGCCCAUUUUUCGCAAAGCUAUUCCCACUCCUAGCUCCUUCAUGUAUUCAUCAAAGCCUUUGCUGUCCAUCAGGCGCAACAGAGGAUUGAGCAUCA
B14: 63416140_63416260_867_3pUTR_ENSMUSG00000004319_ENSMUST00000093490|mouse|control|control (ssRNA)
RNA: GGGAGUUCUACAGUCCGACGAUCGACAUUUAUCCCUCUCUUCAAACGUUGUCUCAUUAGAGCCCCAACAACACUGUUCAUGGUUGUACCACAAUGCACUGAGGCAGAUGCCCUCCUUCAGGUCAGUCAUCCAGUCAGCAGCAACAACAGAGGAUUGAGCAUCA
B15: chr9:110451855:110451856:+_ENSMUSG00000044791_ENSMUST00000153838|mus_mus|FALSE|FALSE (ssRNA)
RNA: GGGAGUUCUACAGUCCGACGAUCAACUGGCAAAGACAUGAGUUUAUCAUGGUGUGGUGACAACAAAGGUUCCAUUUCCCUAAAUGGACUUUUUGACGUAUUAUGCUGCCUACAAGUAUCAUCUGAGUCCCUUUCUCUGCAUCUCAACAGAGGAUUGAGCAUCA
B16: chr7:54825262:54825263:-_ENSG00000132432_ENST00000352861|hu_hu|hu_hu_hu_mus_False|1_108 (ssRNA)
RNA: GGGAGUUCUACAGUCCGACGAUCCUGACUUGGCUCAUCCACAAACUGCAUUACCUGAUCCAUGUUUGUUGGAUGGCGGAUUGAGAGCGUAGAGACACGUAGCUCAGGAGAGAACCGAGCCCAACGGAACCGGAAGCGGAAUCCCAACAGAGGAUUGAGCAUCA
B17: chr11:46405157:46405158:+_ENSG00000110492_ENST00000395566|hu_hu|hu_hu_hu_mus_False|18_88 (ssRNA)
RNA: GGGAGUUCUACAGUCCGACGAUCCCCUCCCCACUUUGGGCACUUGGUGAGAGGGACAGAGGACAGGCGUGAUUGACAGAGCUGACAGGAAGACAAAAGGCACUGGUGGGUUAUAUCUCGGGCCUGGGGGAGAGGAGGGCUCCGCAACAGAGGAUUGAGCAUCA
B18: chr3:179287964:179287965:+_ENSG00000136518_ENST00000429709|hu_hu|hu_hu_hu_mus_True|58_88 (ssRNA)
RNA: GGGAGUUCUACAGUCCGACGAUCCUUGAGUGGUGAGAUGGCCUCCAUAUUCUCCCUGGGCACGCGGAGGGCAUUGGUAUCUAUGUAGUAGGUGGGCCCGCCCUGCUUGCCUUUGUCACCAUCAAUCUCCAUCAUUGUACUUCCCAACAGAGGAUUGAGCAUCA
B19: chr1:244855233:244855234:+_ENSG00000121644_ENST00000302550|hu_mus|hu_hu_hu_mus_True|58_98 (ssRNA)
RNA: GGGAGUUCUACAGUCCGACGAUCCAUCAGAUGGUAGGCAUUGCCUUUAUACUCUUUCCCCAGUUCUUCUACAAUUUUUUCUAUAUCAUCUUCUAGAAAGUCCGUACUUCCUAGAACAACAGCUUCUUUAAAUUUAAAUGUUUCCAACAGAGGAUUGAGCAUCA
B20: chr19:10059387:10059388:+_ENSMUSG00000024661_ENSMUST00000025563|mus_mus|FALSE|FALSE (ssRNA)
RNA: GGGAGUUCUACAGUCCGACGAUCGGGGAAGUCAGCUUAGCUCUCAUCACCGUGUCCCAGGGUGUGCUUGUCAAAGAGAUAUUCUGCCAUGCCAGCUUCAGGGGCACCCAUCUUGCGUAAGUUGGUCACGUGGUCACCCAGUUCCAACAGAGGAUUGAGCAUCA
B21: chr19:16212804:16212805:+_ENSG00000167460_ENST00000300933|hu_mus|hu_hu_hu_mus_False|28_108 (ssRNA)
RNA: GGGAGUUCUACAGUCCGACGAUCAACAAAUAUGCAAUGAAGGAAAGAUGUAACAUGGAACAGCAUUAAAGCUCAGUCAGAAGGCACAUGGGCAACAAUGAUCACCCCCCAAGCAUUGCUUGGAAUGCUUAAAGACAAUCUGUUCAACAGAGGAUUGAGCAUCA
B22: chr18:33606911:33606912:-_ENSG00000141425_ENST00000399022|hu_hu|motif|central (ssRNA)
RNA: GGGAGUUCUACAGUCCGACGAUCUUCCAAUUUAUGCUCUUUCUCUGCAAGGGCUUCCUUUUGACAACGAAGAAAAUCUGCGGACAUUCGAGUGAGUUGCUUUCUAUCAUCUAUUUCUGCCGCCAAUCUGCCAUUGUAAUCUGCCAACAGAGGAUUGAGCAUCA

The binders below were run against T1, UNK ZnF1-3 (assay: nsRBNS (natural sequence RNA bind-n-seq); RBNS binding buffer (assumed for nsRBNS): 25 mM Tris pH 7.5, 150 mM KCl, 3 mM MgCl2, 0.01% Triton X-100, 500 ug/ml BSA, 20 U/ml SUPERase-In, 4 C; UNK is unkempt and MSI1 is Musashi-1; names of the RNAs are library labels; protein concentration not given here; high values mean tight binding).

Binder	binding signal
B1	0.68 enrichment R
B2	1.86 enrichment R
B3	0.792 enrichment R
B4	1.59 enrichment R
B5	0.432 enrichment R
B6	1.54 enrichment R
B7	0.86 enrichment R
B8	0.886 enrichment R
B9	0.837 enrichment R
B10	0.941 enrichment R
B11	0.504 enrichment R
B12	1.16 enrichment R
B13	0.729 enrichment R
B14	0.904 enrichment R
B15	1.28 enrichment R
B16	0.81 enrichment R
B17	3.09 enrichment R
B18	0.686 enrichment R
B19	1.61 enrichment R
B20	0.895 enrichment R
B21	1.19 enrichment R
B22	0.454 enrichment R
